Experimental data reported in US20210179693A1 (Xencor, published 2021).

B1: anti-VEGF IgG1 P257L (antibody)
heavy: EVQLVESGGGLVQPGGSLRLSCAASGYTFTNYGMNWVRQAPGKGLEWVGWINTYTGEPTYAADFKRRFTFSLDTSKSTAYLQMNSLRAEDTAVYYCAKYPHYYGSSHWYFDVWGQGTLVTVSSASTKGPSVFPLAPSSKSTSGGTAALGCLVKDYFPEPVTVSWNSGALTSGVHTFPAVLQSSGLYSLSSVVTVPSSSLGTQTYICNVNHKPSNTKVDKKV[human IgG1 Fc with P257L (EU numbers) omitted here]
light: DIQMTQSPSSLSASVGDRVTITCSASQDISNYLNWYQQKPGKAPKVLIYFTSSLHSGVPSRFSGSGSGTDFTLTISSLQPEDFATYYCQQYSTVPWTFGQGTKVEIKRTVAAPSVFIFPPSDEQLKSGTASVVCLLNNFYPREAKVQWKVDNALQSGNSQESVTEQDSKDSTYSLSSTLTLSKADYEKHKVYACEVTHQGLSSPVTKSFNRGEC
B2: anti-VEGF IgG1 P257N (antibody)
heavy: EVQLVESGGGLVQPGGSLRLSCAASGYTFTNYGMNWVRQAPGKGLEWVGWINTYTGEPTYAADFKRRFTFSLDTSKSTAYLQMNSLRAEDTAVYYCAKYPHYYGSSHWYFDVWGQGTLVTVSSASTKGPSVFPLAPSSKSTSGGTAALGCLVKDYFPEPVTVSWNSGALTSGVHTFPAVLQSSGLYSLSSVVTVPSSSLGTQTYICNVNHKPSNTKVDKKV[human IgG1 Fc with P257N (EU numbers) omitted here]
light: B1 light

Target: T1, human FcRn (His-tagged alpha chain with beta 2 microglobulin) (human, UniProt P55899 partial chain; P61769 partial chain, limits assumed)
T1 construct: also called hFcRn; not shown: His tag
Assay: Biacore, human FcRn on chip, pH 6.0

T1 sequence (P55899 24-297 limits assumed, chain 1 of 2): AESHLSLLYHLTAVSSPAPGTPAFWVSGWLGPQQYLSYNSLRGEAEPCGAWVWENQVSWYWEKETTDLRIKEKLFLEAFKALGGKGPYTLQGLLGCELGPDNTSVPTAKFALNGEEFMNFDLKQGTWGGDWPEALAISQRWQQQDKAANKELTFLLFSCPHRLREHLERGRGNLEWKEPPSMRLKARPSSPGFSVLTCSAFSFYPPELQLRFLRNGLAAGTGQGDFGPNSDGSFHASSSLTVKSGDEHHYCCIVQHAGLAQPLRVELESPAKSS
T1 sequence (P61769 21-119 limits assumed, chain 2 of 2, further chain): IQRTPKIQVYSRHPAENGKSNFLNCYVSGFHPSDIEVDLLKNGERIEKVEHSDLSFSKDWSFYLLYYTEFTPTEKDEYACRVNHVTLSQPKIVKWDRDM

| Binder | fold FcRn binding relative to WT IgG1 |
| --- | --- |
| B1 | 3.4 fold |
| B2 | 3.5 fold |
